As usually defined, the % Inhibition is the change of the read-out against control, counted positive when it falls.

About 540 (0.36%) of roughly 150,000 compounds showed an effect of 50% or more. Some of the results follow.

Results on 54 molecules are retold here after ChEMBL document CHEMBL4888484, “Replenishing the malaria drug discovery pipeline: Screening and hit evaluation of the MMV Hit Generation Library 1 (HGL1) against asexual blood stage Plasmodium falciparum ,using a nano luciferase reporter read-out” (2022).

In this experiment the test system is Plasmodium falciparum. The experiment is described as follows: Primary screen in NF54 nanoGlo assay, in single point, at 2uM, 72h; a lower Z score goes with more inhibition. Type of experiment: functional, Erythrocyte. Particulars: timepoint 72 hour.
Regarding `O=C1CCCN1CC(=O)N1C[C@H](COCc2ccncc2)C2(CCOCC2)C1`, the “% Inhibition” value was -5% and the Z score was 0.6.

With `CC1CCC(N(C)C(=O)C2=NN(C)C(=O)CC2)CC1` (stereo not drawn), the “% Inhibition” value is listed as -7% and the Z score is listed as 0.63.

Regarding `Cc1ccc(NC(=O)NC2CCN(C)C2c2ccccc2)c(C)n1` (stereo not drawn), the “% Inhibition” value was -8% and the Z score is given as 1.02.

As for `O[C@H](COc1cccc2ccccc12)CN1CCN(c2ccccc2)CC1`, the “% Inhibition” value is listed as -8% and the Z score was determined as 1.08.

In the case of `O=C(Nc1cccc(N2CCCCCC2)c1)N1CCC[C@H]1CO`, the “% Inhibition” value is 5% and the Z score is given as -0.61.

With `C#CCN1CCN(CC(=O)Nc2sc(C)c(C)c2C)CC1`, the “% Inhibition” value is -15% and the Z score is listed as 1.34.

On to `Cc1ccn2c(Nc3ccc4c(c3)OCCO4)c(-c3cccs3)nc2c1`, for which the “% Inhibition” value was -4% and the Z score is 0.66.

For the molecule `CC(=O)N(C)CCc1noc(C2CN(Cc3ccncc3F)C2)n1`, the “% Inhibition” value was 5% and the Z score is listed as -0.66.

Regarding `C[C@@H](CNC(=O)c1ccc(Cl)o1)N1CCOCC1`, the “% Inhibition” value was determined as 0% and the Z score amounted to 0.02.

For `O=C(N1CCN(Cc2ccccc2)CC1)[C@@]1(CCO)CC12CCOCC2`, the “% Inhibition” value came out at 5% and the Z score is given as -0.92.

For `COC(=O)[C@H](C)NC(=O)Nc1ccccc1Cl`, the “% Inhibition” value is reported as 5% and the Z score is -0.77.

Take `O=C1c2ccccc2CS(=O)(=O)N1Cc1ccc(Cl)cn1`: the “% Inhibition” value is -3% and the Z score was determined as 0.33.

On to `O=C(COc1ccccc1Cl)Nc1cccc(Cl)c1N1CCCC1`, for which the “% Inhibition” value turned out to be 12% and the Z score was -1.52.

Take `Cc1nn(CCC#N)c(C)c1Br`: the “% Inhibition” value was -21% and the Z score came to 2.75.

As to `CC[C@H]1CCCCN1C(=O)c1ccc(-n2nc(-c3nnc(C)o3)c(C)c2-c2ccc(OC)cc2)cc1`, the “% Inhibition” value came to 16% and the Z score is on record as -2.14.

Take `Cc1cc2c(N3CCC[C@H](NS(C)(=O)=O)C3)nccc2o1`: the “% Inhibition” value is reported as 10% and the Z score is -1.46.

As for `CCn1nc(C)c(CN2CCc3c(c(C(=O)NCc4nccs4)nn3Cc3ccccc3)C2)c1C`, the “% Inhibition” value is listed as -10% and the Z score was 1.19.

`CCn1c(NC(=O)[C@@H]2CCCC(=O)N2C)nc2cc(Cl)ccc21`: the “% Inhibition” value is -6% and the Z score is 0.7.

With `Cc1nn(Cc2ccccc2)c2nc(C3CC3)cc(C(=O)N3CCCCCC3)c12`, the “% Inhibition” value stood at 6% and the Z score is given as -0.93.

With `COCCN1C(=O)N[C@@](Cc2ccc(F)cc2)(C2CCN(Cc3cc(C)cc(C)c3)CC2)C1=O`, the “% Inhibition” value is -17% and the Z score was 2.23.

For the molecule `Oc1ccc(-c2nc(C3CCCCC3)no2)c(F)c1`, the “% Inhibition” value is on record as -10% and the Z score worked out at 2.01.

For `O=c1ccccn1Cc1ncnn1C1Cc2ccccc2C1`, the “% Inhibition” value is on record as -14% and the Z score is listed as 1.61.

On to `COc1ccc(-n2nnnc2-c2cnc(-c3ccc(C(N)=O)cc3)nc2C(F)(F)F)cc1`, for which the “% Inhibition” value came to 1% and the Z score is given as -0.14.

Take `CCOc1ncccc1C(=O)N1CC(OCc2ccccc2C)C1`: the “% Inhibition” value was -12% and the Z score amounted to 1.36.

In the case of `Cc1ccc(CN(CC(=O)O)C(C)C)s1`, the “% Inhibition” value is on record as -9% and the Z score is 1.33.

As to `CO[C@@H](C)CS(=O)(=O)N(C)CCn1cccn1`, the “% Inhibition” value is -5% and the Z score stood at 0.58.

Consider `CC(C)N(C(=O)COC(=O)Cn1ncc(=O)c2ccccc21)C1CCCC1`, for which the “% Inhibition” value is reported as -1% and the Z score came out at 0.11.

For `CC1=CCN(C(=O)c2cccc(S(=O)(=O)NC3CCC3)c2)CC1`, the “% Inhibition” value is given as 3% and the Z score is reported as -0.46.

Consider `CCN(CC)C(=O)c1cn(C[C@H]2CCCN(Cc3ccoc3)C2)nn1`, for which the “% Inhibition” value came to 5% and the Z score is -0.68.

Consider `Cc1cccc(COc2cc(C)cnn2)c1`, for which the “% Inhibition” value is given as -1% and the Z score is listed as 0.16.

Consider `CC(C)c1c(C(=O)N2CCC(N3CCCCC3)CC2)cnn1-c1nccc(-c2ccccc2F)n1`, for which the “% Inhibition” value is 20% and the Z score is on record as -2.56.

Turning to `O=C(c1ccncc1Br)N1CCS(=O)(=O)CC1`, the “% Inhibition” value is recorded as -4% and the Z score turned out to be 0.65.

For `CO[C@H]1C[C@H]2CN(C(=O)NCCc3ccccc3)[C@@H](Cc3ccccc3)C(=O)N2C1`, the “% Inhibition” value is listed as -5% and the Z score is listed as 0.77.

For `CCCN(CC(=O)N(CCc1ccccc1)Cc1ccco1)C(=O)c1ccccc1F`, the “% Inhibition” value was -2% and the Z score stood at 0.29.

Take `C#CCN(CC(=O)c1cc(C)n(-c2cccc(S(=O)(=O)N3CCOCC3)c2)c1C)Cc1ccco1`: the “% Inhibition” value was -1% and the Z score was 0.16.

As to `C[C@](N)(Cc1ccccc1)C(=O)N1CCc2[nH]nc(-c3cccc(F)c3)c2C1`, the “% Inhibition” value was 5% and the Z score is recorded as -0.91.

For the molecule `Cn1cccc1C(=O)C(=O)N1CCN(C(c2ccccc2)c2ccccc2)CC1`, the “% Inhibition” value is reported as -13% and the Z score is recorded as 1.21.

For the molecule `CCN1CCOC(C(=O)NC(C#N)c2cccc(Cl)c2)C1` (stereo not drawn), the “% Inhibition” value is -15% and the Z score stood at 2.15.

For `Cc1cccc(OCC(=O)O/N=C(\N)Cc2ccc(Cl)cc2Cl)c1C`, the “% Inhibition” value was -13% and the Z score is recorded as 1.57.

With `CNC(=O)NCC(=O)N1CCCCCNC(=O)C[C@H]1c1ccccc1`, the “% Inhibition” value is -6% and the Z score worked out at 0.78.

For `CCNC(=O)N1CCc2c(cnc(C)c2-c2noc(-c3cnn(CC)c3C)n2)C1`, the “% Inhibition” value is -6% and the Z score worked out at 0.92.

In the case of `O=C(c1ccco1)N1CCOc2ccc(N3CCOCC3)cc2C1`, the “% Inhibition” value is on record as -1% and the Z score stood at 0.15.

On to `COc1cc(F)cc2sc(NC(=O)[C@@H]3CCCCO3)nc12`, for which the “% Inhibition” value is on record as -18% and the Z score was determined as 2.34.

Consider `CC(C)n1nnnc1-c1ccc(NC(=O)Nc2ccn(C)n2)cc1F`, for which the “% Inhibition” value is recorded as -12% and the Z score is recorded as 2.29.

With `O=C1OC[C@@H]2CCN(CC3CCCCC3)Cc3ccc(F)cc3N12`, the “% Inhibition” value was found to be 10% and the Z score was -1.22.

Turning to `NC(=O)C(Cc1ccccc1)NC(=O)C1CC2C=CC1C2` (stereo not drawn), the “% Inhibition” value was found to be 4% and the Z score is reported as -0.57.

`COc1ccc([C@@H]2C[C@H](c3cccc(OC)c3)n3nc(N)nc3N2)cc1`: the “% Inhibition” value was -1% and the Z score turned out to be 0.22.

On to `Cc1nccn1-c1cc(CNC(=O)c2cccs2)ccn1`, for which the “% Inhibition” value is -9% and the Z score is given as 0.96.

Take `OCc1cn([C@H]2CCCN(Cc3nnc4n3CCCCC4)C2)nn1`: the “% Inhibition” value is -9% and the Z score came out at 1.42.

For `COc1cccc([C@@H](CNS(=O)(=O)c2ccc3c(c2)CC(=O)N3)c2c[nH]c3ccccc23)c1OC`, the “% Inhibition” value is listed as 1% and the Z score is listed as -0.15.

With `O=C(NC1CCCCCCC1)c1cccnc1`, the “% Inhibition” value came to 0% and the Z score is -0.01.

Consider `CCN1CCN(C(=O)COCc2ccnn2C)C(C)(C)C1=O`, for which the “% Inhibition” value was 4% and the Z score is recorded as -0.5.

Take `CC(C)Cc1nc(Cc2nc(-c3cccnc3)n[nH]2)n(-c2ccccn2)n1`: the “% Inhibition” value is listed as -7% and the Z score was 1.01.

Take `CCOc1cccc(Cc2noc(C3(C)CC3)n2)n1`: the “% Inhibition” value is -5% and the Z score is given as 0.66.
